Data published in article PMC7706265.
Results are given in words; binding and its absence hold for the method and conditions named. Binding seen in cells or lysates may run through a third protein. Some results given as binding are weak or reduced against the parent protein; the word gives no strength. Tags and fused reporters may be left off the sequences shown. Values belong to the binder of their own block, whether it stands above or below them.

Assays:
[1] = target: T1, 3xFLAG-tagged ATF7IP dFNIII mutant (transiently expressed in HEK293T cells) (mouse) (UniProt Q7TT18); assay: co-IP; HEK293T cells transiently co-transfected with 3xFLAG-ATF7IP (WT or dFNIII) and V5-tagged proteins; precipitated with anti-FLAG M2 affinity gel, 4 °C; western blot; which lysis buffer was used is not said
T1 sequence: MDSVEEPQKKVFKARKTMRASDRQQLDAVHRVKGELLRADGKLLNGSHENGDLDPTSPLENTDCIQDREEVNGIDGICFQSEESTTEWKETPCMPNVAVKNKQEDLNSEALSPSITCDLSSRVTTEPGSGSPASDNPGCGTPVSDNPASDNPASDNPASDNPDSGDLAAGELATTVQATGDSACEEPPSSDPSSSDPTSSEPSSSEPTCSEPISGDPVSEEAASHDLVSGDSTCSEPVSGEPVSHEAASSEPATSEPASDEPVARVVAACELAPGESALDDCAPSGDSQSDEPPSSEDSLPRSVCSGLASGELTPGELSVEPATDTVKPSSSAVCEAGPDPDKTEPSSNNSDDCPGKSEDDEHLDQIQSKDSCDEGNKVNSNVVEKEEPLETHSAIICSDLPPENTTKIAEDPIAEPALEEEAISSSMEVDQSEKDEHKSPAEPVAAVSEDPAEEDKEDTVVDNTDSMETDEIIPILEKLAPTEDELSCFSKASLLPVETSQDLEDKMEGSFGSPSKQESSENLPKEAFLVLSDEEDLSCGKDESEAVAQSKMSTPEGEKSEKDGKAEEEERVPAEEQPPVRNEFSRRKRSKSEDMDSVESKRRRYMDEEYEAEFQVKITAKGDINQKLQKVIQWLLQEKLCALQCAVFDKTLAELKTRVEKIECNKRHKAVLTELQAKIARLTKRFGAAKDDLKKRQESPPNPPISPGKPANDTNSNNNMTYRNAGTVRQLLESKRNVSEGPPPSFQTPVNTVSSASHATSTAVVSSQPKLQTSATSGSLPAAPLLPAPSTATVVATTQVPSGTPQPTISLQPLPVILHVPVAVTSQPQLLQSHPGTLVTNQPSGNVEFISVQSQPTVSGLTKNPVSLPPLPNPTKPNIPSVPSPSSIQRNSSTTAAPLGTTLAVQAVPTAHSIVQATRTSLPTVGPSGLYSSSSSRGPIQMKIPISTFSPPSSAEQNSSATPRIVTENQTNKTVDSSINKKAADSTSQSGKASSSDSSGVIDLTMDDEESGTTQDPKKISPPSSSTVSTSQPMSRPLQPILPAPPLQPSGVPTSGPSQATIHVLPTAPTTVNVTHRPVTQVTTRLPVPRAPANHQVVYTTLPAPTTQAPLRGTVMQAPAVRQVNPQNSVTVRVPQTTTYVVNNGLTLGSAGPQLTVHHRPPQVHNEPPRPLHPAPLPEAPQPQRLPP

[2] = target: T2, 3xFLAG-tagged ATF7IP WT (transiently expressed in HEK293T cells) (mouse) (UniProt Q7TT18); assay: as above
T2 sequence: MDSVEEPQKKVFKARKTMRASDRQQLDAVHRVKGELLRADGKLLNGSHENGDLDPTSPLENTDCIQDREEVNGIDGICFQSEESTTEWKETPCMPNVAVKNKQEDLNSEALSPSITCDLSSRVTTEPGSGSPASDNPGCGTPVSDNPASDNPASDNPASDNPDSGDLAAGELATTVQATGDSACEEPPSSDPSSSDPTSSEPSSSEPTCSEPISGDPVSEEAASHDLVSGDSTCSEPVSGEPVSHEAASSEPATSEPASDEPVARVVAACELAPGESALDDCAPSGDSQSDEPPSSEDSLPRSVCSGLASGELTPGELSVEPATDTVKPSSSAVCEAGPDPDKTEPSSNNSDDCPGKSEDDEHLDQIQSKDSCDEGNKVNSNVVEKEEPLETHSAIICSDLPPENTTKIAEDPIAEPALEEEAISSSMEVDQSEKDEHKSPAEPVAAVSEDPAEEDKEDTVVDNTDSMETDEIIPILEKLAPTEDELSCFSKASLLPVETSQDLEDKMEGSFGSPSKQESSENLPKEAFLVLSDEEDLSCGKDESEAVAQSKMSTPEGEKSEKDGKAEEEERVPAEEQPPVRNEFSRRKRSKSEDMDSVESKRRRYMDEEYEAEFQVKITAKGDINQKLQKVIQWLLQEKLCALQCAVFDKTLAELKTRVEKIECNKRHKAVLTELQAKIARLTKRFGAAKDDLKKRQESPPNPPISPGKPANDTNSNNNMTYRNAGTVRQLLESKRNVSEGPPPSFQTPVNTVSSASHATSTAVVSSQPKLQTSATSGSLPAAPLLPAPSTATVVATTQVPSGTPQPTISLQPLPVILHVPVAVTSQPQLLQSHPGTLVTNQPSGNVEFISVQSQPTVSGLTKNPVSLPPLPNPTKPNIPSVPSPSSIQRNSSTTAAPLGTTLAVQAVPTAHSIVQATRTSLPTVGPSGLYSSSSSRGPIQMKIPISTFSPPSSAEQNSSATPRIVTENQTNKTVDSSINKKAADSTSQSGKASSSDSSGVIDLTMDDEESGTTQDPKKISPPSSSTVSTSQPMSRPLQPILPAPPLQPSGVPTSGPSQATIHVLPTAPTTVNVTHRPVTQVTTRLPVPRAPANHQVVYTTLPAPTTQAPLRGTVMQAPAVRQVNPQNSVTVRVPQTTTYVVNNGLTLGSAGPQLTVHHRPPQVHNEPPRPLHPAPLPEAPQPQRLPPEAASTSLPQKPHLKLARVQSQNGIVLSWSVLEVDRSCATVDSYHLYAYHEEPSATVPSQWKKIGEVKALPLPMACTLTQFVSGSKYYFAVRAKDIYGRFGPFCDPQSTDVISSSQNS

[3] = target: T3, GST-tagged FNIII domain of mouse ATF7IP (mouse) (UniProt Q7TT18); assay: pull-down; recombinant GST or GST-FNIII domain with lysates of HEK293T cells transiently transfected with V5-ZMYM2 WT or FAM1&2 Mut; pulled-down samples analysed by western blot; only the target purified
T3 sequence: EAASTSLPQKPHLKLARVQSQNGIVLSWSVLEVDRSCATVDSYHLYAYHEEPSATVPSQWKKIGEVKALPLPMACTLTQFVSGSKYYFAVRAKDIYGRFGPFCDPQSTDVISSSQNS

- binding [1]: no binding
- binding [2]: binds
- binding [3]: binds
B1: V5-tagged mouse ZMYM2 WT (protein, UniProt Q9CU65 1-1376)
chain: MDTSSVGTLELTDQTPVLLGSTAMATSLTNVGNSFSGPPNPLVSRSSKFQNSSVEDDDDVVFIEPVQPPPSSAPLVADQRPITFTSSKNEELQGNDPKILPSSKELAPQKGSVSETIVIDDEEDMETNQGQEKSSSNFIERRPSETKNRTNDVDFSSSTFSRSKVNAGVSNSGITTEPDSEIQIANVTTLETGVSSVSDGQLESTDGRDMNLMITHVTSLHNTSLGDGSNGLQSSNFGVNIQTYTPSLTSQTKAGVGPFNPGRMNVAGDVFQNGESAPHHNPDSWISQSASFPRNQKQQGVDSLSPVASLPKQIFQPSNQQPTKPVKVTCANCKKPLQKGQTAYQRKGSAHLFCSTTCLSSFSHKPAPKKLCVMCKKDITTMKGTIVAQVDSSESFQEFCSTSCLSLYEDKQSPAKGALNKSRCTICGKLTEIRHEVSFKNMTHKLCSDHCFNRYRMANGLIMNCCEQCGEYLPSKGAGNNVLVVDGQQKRFCCQSCVTEYKQVGSHPSFLKEVRDHMQDSFLMQPEKYGKLTTCTGCRTQCRFFDMTQCIGPNGYMEPYCSTACMNSHKTKYAKSQSLGIICHFCKRNSLPQYQATMPDGKLYNFCNSSCVAKFQALSMQSSPNGQFVAPSDIQLKCNYCKNSFCSKPEILEWENKVHQFCSKTCSDDYKKLHCIVTYCEYCQEEKTLHETVNFSGVKRPFCSEGCKLLYKQDFARRLGLRCVTCNYCSQLCKKGATKELDGVVRDFCSEDCCKKFQEWYYKAARCDCCKSQGTLKERVQWRGEMKHFCDQHCLLRFYCQQNEPNMTTQKGPENLHYDQGCQTSRTKMTGSAPPPSPTPNKEMKNKAILCKPLTMTKATYCKPHMQTKSCQTDENWKTEYVPVPIPVPVYVPVPMHMYSQNIPVPTTVPVPVPVPVFLPAPLDSSEKIPATVEDLKSKVSSDPLDSELLTMTDMMTEEEGKAEASNINSVIIETDIIGSDLTKNSDPDIQSNMPDVPYEPDLDIEIDFPRAAEELDMENEFLLPPVFGEEYEEQPRPRSKKKGTKRKAVSGYQSHDDSSDNSECSFPFKYTYGVNAWKHWVKTRQLDEDLLVLDELKSSKSVKLKEDLLSHTTAELNYGLAHFVNEIRRPNGENYAPDSIYYLCLGIQEYLCGSNRKDNIFIDPGYQMFEQELNKILRSWQPSILPDGSIFSRVEEDYLWRIKQLGSHSPVALLNTLFYFNTKYFGLKTVEQHLRLSFGTVFRHWKKNPLTMENKACLRYQVSSLCGTDNEDKIATGKRKHEDDEPVFEQVENTANPSRCPVKMFECYLSKSPQNLNQRMDVFYLQPECSSSTDSPVWYTSTSLDRNTLENMLVRVLLVKDIYDKDNYELDEDTD

- binding [1]: no binding
- binding [2]: binds
B2: V5-tagged mouse ZFP518A (protein, UniProt B2RRF6 1-1478)
chain: MPFEQTQLFCDEKPTILKKLDTRNEIADTIRSVSTSKISETSFQYVLKDVNICLPKINIPNEILMKHEVEKYRLLFQSKPQTARKSISVKTVSCAEECVLLCKSERAEDETVNMSAKILNFSCSKCQDSTQYSPNDLQKHFEMWHHGELPSFPCEMCSFSASDFQIFKQHRKTHRNTFVKCDICNSERSYTLLDLTKHFTSKHCVNGNFQCEECRFFTQDVGTFVQHIHRHKEVHYKCGKCHHLCFTKGELQKHLRVHSGTLPFTCHYCSYGAIHKDQLIRHVITLHKEHLYAKEKLERDQYDKRVAKTTTTGLKLILKRYKIGPTKTFWKRKTITSGNDESIGKNAQAFNIVSKTQTKSEDQSQEQVNGEKGEKQHCENGDKPVESESEKATVLSTGQYNKADEGASTTSSSVLSAVQGPTVLLVRNNKITIPANYSAKFMGFKMVDGRQHIVIKLLPANKQILPSPVLQSNTEKNSTANLSPQAVANTGFATGLTTKVNDTDFVKAAPPACSSPVLARKVISEKEAAFISEKNNTLQMVDDSKSLSSLPTTSTTSVRVTTKVEARDNVDLWENDSPQSHPDASDTSISSPDKVSLTPKPNAYSSGDMHNYCINYVNSELPAESSNSFEFSNQGSLPFHNYSKVNNKRRRFSRATLCENLQKESPNKTVTQQSTSDSDTASPLLRKESSNSDNLFASINPLNGTLKIKTEIEEPYNLEETQNFNEQSLFTNENQNLLNVTEEPKWNDIPSAGSPMMPRITSVFSLQSEQASEFLTPEVNQLLQDTLKPKSDIKEDSNNIPSKNLPFDCDQTLKKSEEVVIKSSKDFQMQDDIPVPSASVGVNVPANDLNSKCNGQEKQGLSVLQDVRDSEVTTKIPNIITLLKTQSDAIITQQLVKDKLRTTTQNSGPVYVQNPFLTSEQKNPVFVQTPKGFIIPLHVANKPGLHVFSGRPVPLVNTRSVPATLLVNKKPGMLLATNNGKPESVPTVKTENVHSYGTVTKEPCKTPFLKAEHNNSCLTPGLCSSIGNCVNMKTCSENTLPLKGSYIIKTSVNSSVKAVPNILPEQQGPKMNILDTVKQQNENLPKASLYTLMPDGKQAVFFKCVMPNNTKLLKPKLVQSSTYQHIQPKRPAGAPQKILVKIFNPVLSMSAFNNLSASNSASSFQKEIVPSKPTVHGEQKEPETSRNALPVLVHGLMPANETVHSSTTACPGSSEEPVYISERSETRVLRGKANCAVERNFNKRKTCKNKFAKIKTRIDQDSETAFVSRNRSCKRKYIDNYQEPPRKKSTLNRKGKERASAEDVQEAFGFSRPRLPKDSSRTLRLFPFSSKQLVKCPRRNQPVVVLNHPDADTPEVERVMKTIAKFNGHVLKVSLSQTTINALLKPVSNTSETTYNDFSKRQKMLKPVNSVKERFVLKLTLKKTSKNNYQIVKTTSEDVLKSQFNCWFCGRVFDNQDVWAGHGQRHLVEATRDWNMLE
